Data reported in a collection of fitness landscapes (doi:10.1016/j.celrep.2020.107928).
The full ranking holds about 81,000 sequences; the median of “one-hybrid fitness for binding parS DNA” is about -0.17, and the highest 2% start at about 0.51. This is one part of the list.

B1: Caulobacter ParB omega fusion; a variant is named by its letters at X, in order, B8GW30 (parent)
chain: MESVVVGEPGMSEGRRGLGRGLSALLGEVDAAPAQAPGEQLGGSREAPIEILQRNPDQPRRTFREEDLEDLSNSIREKGVLQPILVRPSPDTAGEYQIVAGERAWRAAQRAGLKTVPIMVRELDDLAVLEIGIIENVQRADLNVLEEALSYKVLMEKFERTQENIAQTIGKSXSHVANXMRLLXLPDEVQSYLVSGELTAXHARAIAAAADPVALAKQIIEGGLSVRETEALARKAPNLSAGKSKGGRPPRVKDTDTQALESDLSSVLGLDVSIDHRGSTGTLTITYATLEQLDDLCNRLTRGI

Variants of: B1
Experiment: one-hybrid fitness for binding parS DNA (scaled: cognate 1, non-cognate 0); higher = stronger binding
Details: with parS DNA site
Outline: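 On M9-minus-histidine containing 0.1 mM IPTG and 5 mM 3-AT, E. coli USO cells with a HIS3 reporter, site 19 bp from the promoter, grew 48 hours at 37°C to select Caulobacter ParB libraries randomised at four specificity codons. Plasmids from before and after were Illumina-sequenced, with three replicate libraries pooled and variants under 10 reads left out. Fitness is the log change in variant-to-wild-type read ratio, rescaled against cognate and non-cognate.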

Variant	one-hybrid fitness for binding parS DNA
CGTA	≤ 0.2
FDTS	≤ 0.2
WSYY	≤ 0.2
WTHC	≤ 0.2
HDRC	≤ 0.2
RRNL	≤ 0.2
PGRN	≤ 0.2
CELN	≤ 0.2
RYQF	0.207
KAKR	≤ 0.2
RKFK	≤ 0.2
PAPC	≤ 0.2
AMMM	≤ 0.2
PDQY	≤ 0.2
HTDR	≤ 0.2
RASE	≤ 0.2
RVNK	≤ 0.2
QFET	≤ 0.2
YTIT	≤ 0.2
APMD	≤ 0.2
SVAL	≤ 0.2
SGSP	≤ 0.2
VDRY	≤ 0.2
QDLQ	≤ 0.2
MRAY	≤ 0.2
RNWG	0.651

Variant	one-hybrid fitness for binding parS DNA
TKGT	≤ 0.2
DSRK	≤ 0.2
VNDP	0.246
RCAE	≤ 0.2
PAVY	≤ 0.2
QREK	≤ 0.2
WYSI	≤ 0.2
SCGL	≤ 0.2
RSYL	≤ 0.2
VLPT	≤ 0.2
SCTT	≤ 0.2
AVPQ	≤ 0.2
LTLD	≤ 0.2
HWWS	≤ 0.2
WAHY	≤ 0.2
DPLR	≤ 0.2
VRNV	≤ 0.2
MWCS	≤ 0.2
IRNS	≤ 0.2
AASY	≤ 0.2
EYYF	0.32
LDRG	≤ 0.2
IQAS	≤ 0.2
LTDE	≤ 0.2
LAAQ	≤ 0.2
DRAR	≤ 0.2

Variant	one-hybrid fitness for binding parS DNA
RDSI	≤ 0.2
AVRI	≤ 0.2
EPER	≤ 0.2
TTNA	≤ 0.2
DVPD	≤ 0.2
TQIT	≤ 0.2
SYYC	≤ 0.2
EKEC	≤ 0.2
YADA	≤ 0.2
MYES	≤ 0.2
AMHT	≤ 0.2
VHHK	≤ 0.2
LSGA	≤ 0.2
NMQR	≤ 0.2
GSCR	≤ 0.2
NGPV	≤ 0.2
PMDC	≤ 0.2
KYTR	≤ 0.2
IIVH	≤ 0.2
TIPG	≤ 0.2
CAVT	≤ 0.2
NYEG	≤ 0.2
KCPR	≤ 0.2
VWSD	≤ 0.2
KASL	≤ 0.2
LNPP	≤ 0.2

Variant	one-hybrid fitness for binding parS DNA
WYLT	≤ 0.2
CSTE	≤ 0.2
SSLD	≤ 0.2
SYRP	≤ 0.2
YRRL	≤ 0.2
VTAI	≤ 0.2
QRWH	≤ 0.2
AYVY	≤ 0.2
YNHS	≤ 0.2
AWTT	≤ 0.2
DCNG	≤ 0.2
NHSA	≤ 0.2
STVW	≤ 0.2
SCRE	≤ 0.2
LESY	≤ 0.2
WVAT	≤ 0.2
HPWP	≤ 0.2
ENRT	≤ 0.2
FNIS	≤ 0.2
HLYG	≤ 0.2
SSRK	≤ 0.2
TLEC	≤ 0.2
HTYT	≤ 0.2
QEDW	≤ 0.2
QINA	≤ 0.2
QRTV	≤ 0.2

Variant	one-hybrid fitness for binding parS DNA
YLAC	≤ 0.2
ATVL	≤ 0.2
AVAC	≤ 0.2
DLAM	≤ 0.2
LFNS	≤ 0.2
NDEG	≤ 0.2
LWAS	≤ 0.2
QHGT	≤ 0.2
CRRG	≤ 0.2
RLFG	0.991
YKWR	≤ 0.2
RTKW	0.668
ILPT	≤ 0.2
QSIV	≤ 0.2
RQRA	0.632
CWQR	≤ 0.2
GLDS	≤ 0.2
PYKF	≤ 0.2
TDRP	≤ 0.2
STDM	≤ 0.2
MITR	≤ 0.2
ARTF	≤ 0.2
KSNF	≤ 0.2
KQTS	≤ 0.2
QCPY	≤ 0.2
RMMV	≤ 0.2

Variant	one-hybrid fitness for binding parS DNA
GRTR	≤ 0.2
SGLH	≤ 0.2
QTRY	≤ 0.2
PREC	≤ 0.2
EPVC	≤ 0.2
PCTL	≤ 0.2
PYKA	≤ 0.2
LGGR	≤ 0.2
PTHE	≤ 0.2
MTSL	≤ 0.2
DTTD	≤ 0.2
NQLN	≤ 0.2
LYLV	≤ 0.2
GWDC	≤ 0.2
ELEC	≤ 0.2
PSAV	≤ 0.2
ALCA	≤ 0.2
LPYM	≤ 0.2
QRPD	≤ 0.2
VPTV	≤ 0.2
VYML	≤ 0.2
NRAF	≤ 0.2
TQTC	≤ 0.2
